# Results: the supplement of paper PMC7826260
# Some of the results follow. Viral Rep nickase domains cut single-stranded DNA in vitro at 3 µM enzyme and 37 °C for 1 h; the strands have 90 letters, of which the middle is given. Values are log2 of uncut reads against the no-enzyme pool; strong cutting gives strongly negative numbers. There is no active / inactive call. Reads are scaled to the total, so uncut sequences can rise above 0 when many others are cut.
# System: T1, Rep nickase domain of Muscovy duck circovirus
# T1 sequence (Rep 1-111, printed without the tag): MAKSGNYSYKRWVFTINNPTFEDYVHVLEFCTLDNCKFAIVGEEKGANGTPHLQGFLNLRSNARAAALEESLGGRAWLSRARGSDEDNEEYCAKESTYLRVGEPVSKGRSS
# Test: uncleaved DNA left, log2 of reads against the no-enzyme library (log2 ratio); higher = less cleavage (more negative = more Rep cleavage of the k-mer); sequences stand for … in CTCGTCCG…ACCGGAGA
# Method: (§1)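 A pool of 90-nt single-stranded DNAs with seven random bases just before the constant AC of the nick site (name = the seven bases) was cut by 3 µM recombinant His6-SUMO-tagged Rep nickase domain (300 nM DNA, 50 mM HEPES pH 8.0, 50 mM NaCl, 1 mM MnCl2, 1 h, 37 °C, three replicates). Uncut DNA was amplified and sequenced.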
row,Sequence,uncleaved DNA left (log2)
1,GGAATAG,0.0988
2,TCATGAG,0.0635
3,ACACACC,0.126
4,GTAACAC,0.132
5,TAAGACT,0.176
6,CCGGCCT,-0.0155
7,TGCGTAA,-0.0278
8,GAAAGGG,0.113
9,TCGTCCA,0.0666
10,ATGTCAC,0.0422
11,AACTCCG,0.0155
12,GGTGATT,-0.0643
13,ACGATCA,0.113
14,GGTGCGT,-0.0526
15,TAGCCGT,0.073
16,CTATAAC,-0.0474
17,CCGCTTT,-0.158
18,ATGAGAT,0.0936
19,AGACTAA,0.0746
20,AAATCAC,0.156

row,Sequence,uncleaved DNA left (log2)
1,ATACGAT,0.166
2,TTACATC,-0.0567
3,GGAGCAA,0.0661
4,GCCGATG,-0.101
5,GTTGTGC,0.144
6,GTTTTCA,0.103
7,CCCCTCG,-0.252
8,CCATTCT,-1.32
9,CATTTCC,-0.215
10,GTTCACA,0.0318
11,CTGGCAT,-0.0596
12,AATAAGG,0.19
13,GACACGT,0.0106
14,ATCCCGA,0.0742
15,ATATAGT,-3.41
16,TGGCTCG,-0.0562
17,ATCGAAC,-0.0193
18,CACGTTT,0.00572
19,TCGGGGT,-0.0698

# System: T2, Rep nickase domain of banana bunchy top virus
# T2 sequence (Rep 1-94, printed without the tag): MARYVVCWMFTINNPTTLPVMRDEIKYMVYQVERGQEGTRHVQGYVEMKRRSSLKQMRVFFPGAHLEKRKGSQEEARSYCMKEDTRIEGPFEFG
# Test: as above
# Method: as §1
row,Sequence,uncleaved DNA left (log2)
1,GGAATAG,0.045
2,TCATGAG,0.0873
3,ACACACC,0.00998
4,GTAACAC,0.147
5,TAAGACT,0.169
6,CCGGCCT,0.107
7,TGCGTAA,0.0393
8,GAAAGGG,-0.0134
9,TCGTCCA,0.121
10,ATGTCAC,0.0155
11,AACTCCG,0.0269
12,GGTGATT,0.0146
13,ACGATCA,0.146
14,GGTGCGT,-0.12
15,TAGCCGT,-0.0467
16,CTATAAC,-0.0619
17,CCGCTTT,-0.0331
18,ATGAGAT,0.0531
19,AGACTAA,0.0885
20,AAATCAC,0.106

row,Sequence,uncleaved DNA left (log2)
1,ATACGAT,0.046
2,TTACATC,-0.0487
3,GGAGCAA,0.116
4,GCCGATG,-0.0984
5,GTTGTGC,-0.00479
6,GTTTTCA,0.123
7,CCCCTCG,-0.141
8,CCATTCT,0.0411
9,CATTTCC,-0.326
10,GTTCACA,0.155
11,CTGGCAT,-0.0393
12,AATAAGG,0.163
13,GACACGT,0.00891
14,ATCCCGA,0.00112
15,ATATAGT,-0.242
16,TGGCTCG,-0.0705
17,ATCGAAC,-0.0183
18,CACGTTT,-0.0894
19,TCGGGGT,-0.0995

# System: T3, Rep nickase domain of cabbage leaf curl virus
# T3 sequence (Rep 1-116, printed without the tag): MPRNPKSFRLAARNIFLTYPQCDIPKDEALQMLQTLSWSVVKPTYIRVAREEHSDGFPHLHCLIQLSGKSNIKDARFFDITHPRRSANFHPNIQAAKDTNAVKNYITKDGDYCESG
# Test: as above
# Method: as §1
row,Sequence,uncleaved DNA left (log2)
1,GGAATAG,0.124
2,TCATGAG,-0.721
3,ACACACC,-0.14
4,GTAACAC,0.259
5,TAAGACT,-2.09
6,CCGGCCT,0.0535
7,TGCGTAA,-0.421
8,GAAAGGG,0.0728
9,TCGTCCA,0.227
10,ATGTCAC,-0.0206
11,AACTCCG,-0.757
12,GGTGATT,0.642
13,ACGATCA,0.021
14,GGTGCGT,-0.0825
15,TAGCCGT,-0.494
16,CTATAAC,-0.567
17,CCGCTTT,-0.0461
18,ATGAGAT,0.313
19,AGACTAA,0.575
20,AAATCAC,-1.65

row,Sequence,uncleaved DNA left (log2)
1,ATACGAT,0.138
2,TTACATC,-0.0239
3,GGAGCAA,0.846
4,GCCGATG,0.0131
5,GTTGTGC,-0.0717
6,GTTTTCA,0.395
7,CCCCTCG,-0.749
8,CCATTCT,-0.493
9,CATTTCC,-0.082
10,GTTCACA,0.353
11,CTGGCAT,0.294
12,AATAAGG,0.115
13,GACACGT,0.0651
14,ATCCCGA,-0.37
15,ATATAGT,-1.54
16,TGGCTCG,-0.637
17,ATCGAAC,-0.13
18,CACGTTT,-0.55
19,TCGGGGT,0.326
